# Measurements taken from paper PMC3424240.
# By UniProt entry, the sequences of proteins in these tests, tags left out.
# UniProt Q9UPS6: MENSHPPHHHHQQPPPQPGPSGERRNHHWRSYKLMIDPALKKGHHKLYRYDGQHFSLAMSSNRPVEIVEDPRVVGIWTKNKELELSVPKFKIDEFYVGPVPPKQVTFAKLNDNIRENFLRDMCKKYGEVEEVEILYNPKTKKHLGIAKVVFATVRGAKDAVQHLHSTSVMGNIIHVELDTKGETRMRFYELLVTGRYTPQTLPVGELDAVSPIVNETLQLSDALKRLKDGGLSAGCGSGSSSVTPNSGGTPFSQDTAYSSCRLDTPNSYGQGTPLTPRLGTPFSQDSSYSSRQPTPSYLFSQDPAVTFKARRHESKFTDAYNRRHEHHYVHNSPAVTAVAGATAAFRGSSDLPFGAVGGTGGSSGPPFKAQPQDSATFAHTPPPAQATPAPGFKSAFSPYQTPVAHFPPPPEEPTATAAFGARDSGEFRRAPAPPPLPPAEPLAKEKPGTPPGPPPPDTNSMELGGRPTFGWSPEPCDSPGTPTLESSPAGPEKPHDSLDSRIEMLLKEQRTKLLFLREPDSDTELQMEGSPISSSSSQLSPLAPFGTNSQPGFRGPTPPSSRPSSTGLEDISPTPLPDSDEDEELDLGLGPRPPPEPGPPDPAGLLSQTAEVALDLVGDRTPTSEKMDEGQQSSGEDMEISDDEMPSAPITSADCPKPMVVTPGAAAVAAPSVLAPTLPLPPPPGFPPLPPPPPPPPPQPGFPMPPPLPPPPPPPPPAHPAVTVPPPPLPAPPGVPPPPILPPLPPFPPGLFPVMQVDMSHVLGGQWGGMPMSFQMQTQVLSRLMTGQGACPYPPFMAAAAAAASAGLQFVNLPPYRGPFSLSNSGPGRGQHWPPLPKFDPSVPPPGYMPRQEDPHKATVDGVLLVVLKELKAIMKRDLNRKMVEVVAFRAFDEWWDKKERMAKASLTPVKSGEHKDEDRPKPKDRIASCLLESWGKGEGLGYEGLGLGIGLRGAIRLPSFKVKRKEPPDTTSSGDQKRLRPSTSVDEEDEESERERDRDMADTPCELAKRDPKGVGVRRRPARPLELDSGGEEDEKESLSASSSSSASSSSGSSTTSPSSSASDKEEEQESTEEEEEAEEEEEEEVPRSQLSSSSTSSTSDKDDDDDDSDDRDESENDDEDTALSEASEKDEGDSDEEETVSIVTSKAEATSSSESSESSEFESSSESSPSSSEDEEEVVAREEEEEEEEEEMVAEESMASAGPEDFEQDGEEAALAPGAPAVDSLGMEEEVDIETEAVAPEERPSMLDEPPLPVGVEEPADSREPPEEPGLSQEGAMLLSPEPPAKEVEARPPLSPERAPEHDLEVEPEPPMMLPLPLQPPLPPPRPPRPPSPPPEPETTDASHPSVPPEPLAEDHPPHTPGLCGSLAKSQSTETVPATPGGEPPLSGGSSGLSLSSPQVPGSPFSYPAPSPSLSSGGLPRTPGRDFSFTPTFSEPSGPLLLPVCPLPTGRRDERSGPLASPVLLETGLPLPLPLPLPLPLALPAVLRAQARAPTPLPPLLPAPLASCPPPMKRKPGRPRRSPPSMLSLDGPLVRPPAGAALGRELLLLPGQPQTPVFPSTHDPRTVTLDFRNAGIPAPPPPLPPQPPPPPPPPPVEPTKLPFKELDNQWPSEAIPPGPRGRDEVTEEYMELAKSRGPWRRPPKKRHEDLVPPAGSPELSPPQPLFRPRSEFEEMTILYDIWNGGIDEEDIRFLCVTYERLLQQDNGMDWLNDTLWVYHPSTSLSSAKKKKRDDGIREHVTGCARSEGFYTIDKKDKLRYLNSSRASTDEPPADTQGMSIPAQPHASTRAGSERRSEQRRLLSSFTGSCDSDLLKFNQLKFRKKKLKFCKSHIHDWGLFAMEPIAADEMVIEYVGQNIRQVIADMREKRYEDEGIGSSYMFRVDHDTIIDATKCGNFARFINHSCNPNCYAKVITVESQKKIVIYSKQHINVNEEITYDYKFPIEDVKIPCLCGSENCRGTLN
# UniProt Q8CFT2: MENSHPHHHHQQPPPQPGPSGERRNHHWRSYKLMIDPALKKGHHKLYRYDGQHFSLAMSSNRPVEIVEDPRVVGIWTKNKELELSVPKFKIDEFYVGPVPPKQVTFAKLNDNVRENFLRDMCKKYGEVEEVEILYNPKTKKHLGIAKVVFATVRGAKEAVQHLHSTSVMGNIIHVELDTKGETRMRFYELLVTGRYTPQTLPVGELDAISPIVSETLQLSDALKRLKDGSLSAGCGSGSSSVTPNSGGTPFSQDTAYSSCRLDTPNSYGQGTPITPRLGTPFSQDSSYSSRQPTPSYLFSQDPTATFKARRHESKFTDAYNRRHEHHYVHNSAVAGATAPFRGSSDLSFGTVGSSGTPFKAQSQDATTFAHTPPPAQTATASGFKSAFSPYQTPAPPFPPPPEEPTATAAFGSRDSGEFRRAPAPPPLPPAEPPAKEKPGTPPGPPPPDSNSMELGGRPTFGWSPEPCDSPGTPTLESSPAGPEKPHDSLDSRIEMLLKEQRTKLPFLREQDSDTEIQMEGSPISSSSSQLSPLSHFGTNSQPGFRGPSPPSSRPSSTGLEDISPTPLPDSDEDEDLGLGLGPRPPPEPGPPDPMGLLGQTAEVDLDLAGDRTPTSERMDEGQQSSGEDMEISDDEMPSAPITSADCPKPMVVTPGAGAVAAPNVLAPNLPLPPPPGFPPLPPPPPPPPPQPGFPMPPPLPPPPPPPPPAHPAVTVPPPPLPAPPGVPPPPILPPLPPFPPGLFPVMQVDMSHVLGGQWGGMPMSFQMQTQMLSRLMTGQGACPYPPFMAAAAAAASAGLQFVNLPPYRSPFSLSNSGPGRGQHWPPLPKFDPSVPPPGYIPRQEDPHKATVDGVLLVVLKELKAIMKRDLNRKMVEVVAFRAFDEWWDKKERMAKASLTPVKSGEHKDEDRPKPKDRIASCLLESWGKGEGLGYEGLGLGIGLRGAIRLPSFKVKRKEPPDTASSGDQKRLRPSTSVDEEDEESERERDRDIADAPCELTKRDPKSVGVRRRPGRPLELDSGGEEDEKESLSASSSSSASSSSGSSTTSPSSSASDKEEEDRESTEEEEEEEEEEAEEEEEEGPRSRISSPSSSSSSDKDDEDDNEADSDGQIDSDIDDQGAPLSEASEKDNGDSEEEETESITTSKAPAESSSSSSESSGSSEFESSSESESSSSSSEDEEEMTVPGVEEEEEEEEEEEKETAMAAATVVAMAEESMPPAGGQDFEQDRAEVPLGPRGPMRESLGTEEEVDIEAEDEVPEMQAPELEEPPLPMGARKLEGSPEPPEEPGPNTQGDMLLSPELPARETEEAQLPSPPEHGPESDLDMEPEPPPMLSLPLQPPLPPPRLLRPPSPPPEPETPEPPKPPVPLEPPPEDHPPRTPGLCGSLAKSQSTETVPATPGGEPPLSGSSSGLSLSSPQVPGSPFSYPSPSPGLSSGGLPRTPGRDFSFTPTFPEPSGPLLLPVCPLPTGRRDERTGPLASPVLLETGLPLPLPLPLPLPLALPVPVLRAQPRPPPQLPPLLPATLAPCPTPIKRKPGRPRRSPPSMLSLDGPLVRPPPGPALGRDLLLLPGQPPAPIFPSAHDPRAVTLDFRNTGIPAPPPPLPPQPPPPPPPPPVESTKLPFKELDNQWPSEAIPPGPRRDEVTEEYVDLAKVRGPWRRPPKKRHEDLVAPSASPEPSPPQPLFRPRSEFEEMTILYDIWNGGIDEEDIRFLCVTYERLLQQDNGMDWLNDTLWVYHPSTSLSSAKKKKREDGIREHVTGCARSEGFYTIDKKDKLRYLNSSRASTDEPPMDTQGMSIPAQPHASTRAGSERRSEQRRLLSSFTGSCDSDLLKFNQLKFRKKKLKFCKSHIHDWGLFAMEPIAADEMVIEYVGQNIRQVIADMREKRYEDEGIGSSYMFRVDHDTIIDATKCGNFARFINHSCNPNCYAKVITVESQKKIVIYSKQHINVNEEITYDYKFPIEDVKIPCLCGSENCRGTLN
# Results are given in words; binding and its absence hold for the method and conditions named. In cells and extracts the contact can be indirect. Some results given as binding are weak or reduced against the parent protein; the word gives no strength. For part of these data: Where a sequence is shown, tags or fusion partners need not be part of it.
# B1: Myc-Rbm15 (protein, UniProt Q96T37 1-977)
# chain: MRTAGRDPVPRRSPRWRRAVPLCETSAGRRVTQLRGDDLRRPATMKGKERSPVKAKRSRGGEDSTSRGERSKKLGGSGGSNGSSSGKTDSGGGSRRSLHLDKSSSRGGSREYDTGGGSSSSRLHSYSSPSTKNSSGGGESRSSSRGGGGESRSSGAASSAPGGGDGAEYKTLKISELGSQLSDEAVEDGLFHEFKRFGDVSVKISHLSGSGSGDERVAFVNFRRPEDARAAKHARGRLVLYDRPLKIEAVYVSRRRSRSPLDKDTYPPSASVVGASVGGHRHPPGGGGGQRSLSPGGAALGYRDYRLQQLALGRLPPPPPPPLPRDLERERDYPFYERVRPAYSLEPRVGAGAGAAPFREVDEISPEDDQRANRTLFLGNLDITVTESDLRRAFDRFGVITEVDIKRPSRGQTSTYGFLKFENLDMSHRAKLAMSGKIIIRNPIKIGYGKATPTTRLWVGGLGPWVPLAALAREFDRFGTIRTIDYRKGDSWAYIQYESLDAAHAAWTHMRGFPLGGPDRRLRVDFADTEHRYQQQYLQPLPLTHYELVTDAFGHRAPDPLRGARDRTPPLLYRDRDRDLYPDSDWVPPPPPVRERSTRTAATSVPAYEPLDSLDRRRDGWSLDRDRGDRDLPSSRDQPRKRRLPEESGGRHLDRSPESDRPRKRHCAPSPDRSPELSSSRDRYNSDNDRSSRLLLERPSPIRDRRGSLEKSQGDKRDRKNSASAERDRKHRTTAPTEGKSPLKKEDRSDGSAPSTSTASSKLKSPSQKQDGGTAPVASASPKLCLAWQGMLLLKNSNFPSNMHLLQGDLQVASSLLVEGSTGGKVAQLKITQRLRLDQPKLDEVTRRIKVAGPNGYAILLAVPGSSDSRSSSSSAASDTATSTQRPLRNLVSYLKQKQAAGVISLPVGGNKDKENTGVLHAFPPCEFSQQFLDSPAKALAKSEEDYLVMIIVRGFGFQIGVRYENKKRENLALTLL
# B2: Rbm15 of murine 6133 megakaryoblastic leukemic cells (protein, UniProt Q0VBL3 1-962)
# chain: MRSAGREPLPRRSPRWRRASPLCETSAGWRVSQLRRDDLRRPSTMKGKERSPVKPKRSRGGEDSSSRGERSKKLGGSGGSNGSSSGKTDSGGSRRSLHLDKSSSRGGSREYETGGGSSSSRLHSYSSPSTKNSSGGGESRSSSRGGGGESRSSGAASSAPGGGDGVEYKTLKISELGSQLSDEAVEDGLFHEFKRFGDVSVKISHLSGSGSGDERVAFVNFRRPEDARAAKHARGRLVLYDRPLKIEAVYVSRRRSRSPLDKDAYAPSSSVVGTSVGSHRHAPGGGGGQRSLSPGGAALGYRDYRLQQLALGRLPPPPPPPLPRELERERDYPFYDRVRPAYSLEPRVGAGAGAAPFREVDEISPEDDQRANRTLFLGNLDITVTENDLRRAFDRFGVITEVDIKRPSRGQTSTYGFLKFENLDMSHRAKLAMSGKIIIRNPIKIGYGKATPTTRLWVGGLGPWVPLAALAREFDRFGTIRTIDYRKGDSWAYIQYESLDAAHAAWTHMRGFPLGGPDRRLRVDFADTEHRYQQQYLQPLPLTHYELVTDTFGHRAPDPLRSARDRTPPLLYRDRDRDLYTDSDWVPPPPPVRERSARAATSAVTAYEPLDSLDRRRDGWSLDRDRGDRDLPSSRDQPRKRRLPEESGGRHLDRSPESERPRKQRHCTPSPDRSPELSSNRDRYNSDNDRSSRLLLLERSSPVRDRRGSLEKSQSDKRDRKNSASAERDRKHRTAAPTEGKNPLKKEDRSDGNAPSASTSSSKQKPPSQKQDGGTAPVAASSPKLCLAWQGMLLLKNSNFPSNMHLLQGDLQVASSLLVEGSTGGKVAQLKITQRLRLDQPKLDEVTRRIKVAGPNGYAILLAVPGSSDSRSSSSSATSDTAASTQRPLRNLVSYLKQKQAAGVISLPVGGNKDKENTGVLHAFPPCEFSQQFLDSPAKALAKSEEDYLVMIIVRAKLVNSG
# B3: Myc-Mkl1 (protein, UniProt Q969V6 1-931)
# chain: MPPLKSPAAFHEQRRSLERARTEDYLKRKIRSRPERSELVRMHILEETSAEPSLQAKQLKLKRARLADDLNEKIAQRPGPMELVEKNILPVESSLKEAIIVGQVNYPKVADSSSFDEDSSDALSPEQPASHESQGSVPSPLEARVSEPLLSATSASPTQVVSQLPMGRDSREMLFLAEQPPLPPPPLLPPSLTNGTTIPTAKSTPTLIKQSQPKSASEKSQRSKKAKELKPKVKKLKYHQYIPPDQKQDRGAPPMDSSYAKILQQQQLFLQLQILNQQQQQHHNYQAILPAPPKSAGEALGSSGTPPVRSLSTTNSSSSSGAPGPCGLARQNSTSLTGKPGALPANLDDMKVAELKQELKLRSLPVSGTKTELIERLRAYQDQISPVPGAPKAPAATSILHKAGEVVVAFPAARLSTGPALVAAGLAPAEVVVATVASSGVVKFGSTGSTPPVSPTPSERSLLSTGDENSTPGDTFGEMVTSPLTQLTLQASPLQILVKEEGPRAGSCCLSPGGRAELEGRDKDQMLQEKDKQIEALTRMLRQKQQLVERLKLQLEQEKRAQQPAPAPAPLGTPVKQENSFSSCQLSQQPLGPAHPFNPSLAAPATNHIDPCAVAPGPPSVVVKQEALQPEPEPVPAPQLLLGPQGPSLIKGVAPPTLITDSTGTHLVLTVTNKNADSPGLSSGSPQQPSSQPGSPAPAPSAQMDLEHPLQPLFGTPTSLLKKEPPGYEEAMSQQPKQQENGSSSQQMDDLFDILIQSGEISADFKEPPSLPGKEKPSPKTVCGSPLAAQPSPSAELPQAAPPPPGSPSLPGRLEDFLESSTGLPLLTSGHDGPEPLSLIDDLHSQMLSSTAILDHPPSPMDTSELHFVPEPSSTMGLDLADGHLDSMDWLELSSGGPVLSLAPLSTTAPSLFSTDFLDGHDLQLHWDSCL
# Legend:
# [1] = target: endogenous Setd1b (human (endogenous in HEK293)) (UniProt Q9UPS6); experiment: co-IP; immunoprecipitation with anti-Setd1b antiserum from nuclear extracts of HEK293 cells transiently transfected with Myc-tagged constructs, Western blotting
# [2] = target: Setd1b of murine 6133 megakaryoblastic leukemic cells (mouse (endogenous in 6133)) (UniProt Q8CFT2); experiment: co-IP; immunoprecipitation with antisera against Setd1b or Rbm15 from whole cell extracts of murine 6133 megakaryoblastic leukemic cells, Western blotting
Binder,binding [1],binding [2]
B1,binds,
B2,,binds
B3,no binding,
